Whole data set: some 33,000 sequences, median “E-score (-0.5 to 0.5)” near -0.054, cut for the highest 2% near 0.35. The list shows a part of the results.

The target in the assay is T1, Stb5 (UniProt P38699).
T1 sequence: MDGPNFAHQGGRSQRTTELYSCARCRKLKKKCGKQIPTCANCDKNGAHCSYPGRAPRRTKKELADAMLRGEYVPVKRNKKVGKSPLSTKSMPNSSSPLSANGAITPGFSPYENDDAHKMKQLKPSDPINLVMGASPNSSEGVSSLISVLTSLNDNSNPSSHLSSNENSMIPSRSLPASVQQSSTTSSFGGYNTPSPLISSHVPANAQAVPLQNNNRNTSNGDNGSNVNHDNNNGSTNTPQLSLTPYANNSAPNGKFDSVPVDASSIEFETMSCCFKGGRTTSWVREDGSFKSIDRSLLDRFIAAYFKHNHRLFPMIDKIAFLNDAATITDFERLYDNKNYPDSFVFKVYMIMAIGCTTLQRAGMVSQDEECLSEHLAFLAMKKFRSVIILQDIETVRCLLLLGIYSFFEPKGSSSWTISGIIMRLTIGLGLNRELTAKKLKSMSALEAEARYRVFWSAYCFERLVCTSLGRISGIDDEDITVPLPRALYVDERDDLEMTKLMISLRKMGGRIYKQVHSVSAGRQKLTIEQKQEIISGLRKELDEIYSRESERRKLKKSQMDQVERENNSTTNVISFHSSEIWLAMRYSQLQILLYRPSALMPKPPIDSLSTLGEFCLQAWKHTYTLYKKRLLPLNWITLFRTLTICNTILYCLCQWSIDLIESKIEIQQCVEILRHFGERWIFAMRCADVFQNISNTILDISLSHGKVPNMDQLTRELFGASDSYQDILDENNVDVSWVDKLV
The experiment in a line: PBM E-score (8-mer binding enrichment) (E-score (-0.5 to 0.5)); higher = stronger / more preferred TF binding; most listed sequences are background and not binding sites. The settings on record: protein concentration: 200 nM; construct: GST-full length. The method in brief:
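Detection of bound protein used fluorescent anti-GST, with scans normalised by masliner. The proteins were GST-tagged yeast transcription factors applied at about 100-200 nM to universal all-10-mer Agilent arrays made double-stranded by primer extension. Each ungapped eight-base word, pooled with its reverse complement, was scored with an E-score from the Universal PBM Analysis Suite.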
Turning to AGTACCTA, the “PBM E-score” value was -0.0642. As to TATGAATA, the “PBM E-score” value is 0.0249. Regarding GTAAACAC, the “PBM E-score” value was found to be 0.096. Take AGTTAACA: the “PBM E-score” value came out at 0.0184.

Regarding CACTTTCA, the “PBM E-score” value is -0.105. In the case of AGCCAACG it was -0.209; in that of CAGAACAA, -0.0962; in that of CCTCGAGC, -0.115. AGCGAACT: the “PBM E-score” value was -0.271. For the sequence GACATATC, the “PBM E-score” value is 0.0776. Turning to CCAGGGCA, the “PBM E-score” value was -0.111. In the case of CCCAGGAG it was -0.253; in that of ATAAGGTC, 0.0097; in that of AGTACTTA, -0.175. Take ACGGGATA: the “PBM E-score” value was found to be 0.198.

With GCAACTTA, the “PBM E-score” value is -0.0671. As for CCCTCGAA, the “PBM E-score” value was -0.222. In the case of CATAGCCG, the “PBM E-score” value was 0.172. With ACCACTAC, the “PBM E-score” value is -0.0721. Regarding GTGCTAAA, the “PBM E-score” value was 0.123. As to TCGGAAAA, the “PBM E-score” value was 0.133. With AATGACCA, the “PBM E-score” value was -0.133.

With CGTGCACA, the “PBM E-score” value is -0.289. AGTTCGAC: the “PBM E-score” value turned out to be 0.023. Turning to ATGCATTC, the “PBM E-score” value is -0.203. Take GCTCCGCA: the “PBM E-score” value was determined as 0.173. Turning to CCAGTTCC, the “PBM E-score” value was determined as 0.0436. For TATAGCCA, the “PBM E-score” value is -0.122.

For the sequence CGGCGGCA, the “PBM E-score” value is 0.411. For the sequence CGGCAGTC, the “PBM E-score” value was found to be 0.11. For the sequence ATCTCGCC, the “PBM E-score” value was -0.0335. In the case of TCCGGCCA it was 0.23; in that of ATACGTTG, -0.107. Turning to CGCATCAC, the “PBM E-score” value was -0.0266.

Regarding CATGTCGA, the “PBM E-score” value was -0.0944. Take TAATTTGA: the “PBM E-score” value was -0.0297. Turning to TACTTATA, the “PBM E-score” value worked out at 0.0221. In the case of AAAGATCT it was -0.206; in that of AAACCTTT, 0.0851.

Take AACCGCTA: the “PBM E-score” value worked out at 0.0216. Regarding CGTCAAAC, the “PBM E-score” value was determined as 0.084. Turning to ATCAATAA, the “PBM E-score” value is -0.0466. Take AAGTCGAA: the “PBM E-score” value was -0.228. In the case of CGCTGCGC it was 0.013; in that of TCAGTCCA, -0.216. Regarding CTTTGAAA, the “PBM E-score” value is -0.0707.

Regarding GCTGTCCA, the “PBM E-score” value was -0.0587. Turning to AAGCTAGT, the “PBM E-score” value was -0.221. In the case of AACCAATT it was -0.165. In the case of AGCGTCGG it was 0.318; in that of TAATACCA, 0.1; in that of ACAGAGAG, -0.365.

AACTTCTA: the “PBM E-score” value was -0.212. In the case of CCAGTTTA it was -0.129; in that of ACGAGACC, 0.0349. As for CGCAGGCG, the “PBM E-score” value came to 0.0835. As for CCATGTTA, the “PBM E-score” value is -0.174. In the case of AGCGATAG it was -0.221; in that of CCTCGTAA, -0.127; in that of TAGGCGAA, -0.0831. With AGGACCTA, the “PBM E-score” value came to 0.141. In the case of AACAACGA it was -0.00382. As for CAGGGCGG, the “PBM E-score” value amounted to 0.308.

As to AATGACAA, the “PBM E-score” value is -0.228. For the sequence AGGTCACA, the “PBM E-score” value was -0.233. For GCGGTCAC, the “PBM E-score” value is 0.243. With ACTAGTGG, the “PBM E-score” value was -0.134. As for AGTCTGTC, the “PBM E-score” value is -0.255. In the case of AGAGACGG, the “PBM E-score” value came to 0.0766. For AGGTGTGA, the “PBM E-score” value was 0.00067. For the sequence AAGAGGGA, the “PBM E-score” value was -0.362. As for ATAGCAAC, the “PBM E-score” value was -0.00788. Regarding CGACGCAA, the “PBM E-score” value stood at 0.11.

As to TCGCCGCA, the “PBM E-score” value was determined as 0.228. Take GGGAGAAA: the “PBM E-score” value was 0.0145. For GTGTATTA, the “PBM E-score” value is -0.0519. Take CAGGTTGC: the “PBM E-score” value is -0.193. Consider GGCCACCC, for which the “PBM E-score” value was -0.0691. Regarding CCGGCTAG, the “PBM E-score” value came out at 0.107. As to AGTGCACT, the “PBM E-score” value was -0.151. Regarding AGGCTGCA, the “PBM E-score” value is -0.26. As to ACTGAACT, the “PBM E-score” value was -0.204. Consider GACCTATA, for which the “PBM E-score” value was found to be 0.204.

With GGCCGACA, the “PBM E-score” value was found to be 0.327.

GGACAGCC: the “PBM E-score” value is -0.0341. For the sequence CGCAGCCC, the “PBM E-score” value stood at 0.0141.

The values are drawn from the supplement of paper PMC3334620.
